# Assay results from PubChem BioAssay AID504333 (National Center for Advancing Translational Sciences (NCATS), 2011).
# Screen size: about 360,000 compounds; about 16,000 (4.4%) were called active. The shares of active, inactive and inconclusive entries below differ from those in the screen. The call rests on the fitted dose curve; in most records, active means well fitted inhibition curve with a large enough effect; inconclusive means small, poorly fitted or top-dose-only effect; inactive means no such curve, though single readings can be large or run the other way. Potencies of inconclusive entries are doubtful fits and often do not repeat.
# Biological target: Bromodomain adjacent to zinc finger domain protein 2B (Homo sapiens) (UniProt Q9UIF8)
# Sequence of UniProt Q9UIF8 (Q9UIF8 whole entry, looked up, the tested form may be a part): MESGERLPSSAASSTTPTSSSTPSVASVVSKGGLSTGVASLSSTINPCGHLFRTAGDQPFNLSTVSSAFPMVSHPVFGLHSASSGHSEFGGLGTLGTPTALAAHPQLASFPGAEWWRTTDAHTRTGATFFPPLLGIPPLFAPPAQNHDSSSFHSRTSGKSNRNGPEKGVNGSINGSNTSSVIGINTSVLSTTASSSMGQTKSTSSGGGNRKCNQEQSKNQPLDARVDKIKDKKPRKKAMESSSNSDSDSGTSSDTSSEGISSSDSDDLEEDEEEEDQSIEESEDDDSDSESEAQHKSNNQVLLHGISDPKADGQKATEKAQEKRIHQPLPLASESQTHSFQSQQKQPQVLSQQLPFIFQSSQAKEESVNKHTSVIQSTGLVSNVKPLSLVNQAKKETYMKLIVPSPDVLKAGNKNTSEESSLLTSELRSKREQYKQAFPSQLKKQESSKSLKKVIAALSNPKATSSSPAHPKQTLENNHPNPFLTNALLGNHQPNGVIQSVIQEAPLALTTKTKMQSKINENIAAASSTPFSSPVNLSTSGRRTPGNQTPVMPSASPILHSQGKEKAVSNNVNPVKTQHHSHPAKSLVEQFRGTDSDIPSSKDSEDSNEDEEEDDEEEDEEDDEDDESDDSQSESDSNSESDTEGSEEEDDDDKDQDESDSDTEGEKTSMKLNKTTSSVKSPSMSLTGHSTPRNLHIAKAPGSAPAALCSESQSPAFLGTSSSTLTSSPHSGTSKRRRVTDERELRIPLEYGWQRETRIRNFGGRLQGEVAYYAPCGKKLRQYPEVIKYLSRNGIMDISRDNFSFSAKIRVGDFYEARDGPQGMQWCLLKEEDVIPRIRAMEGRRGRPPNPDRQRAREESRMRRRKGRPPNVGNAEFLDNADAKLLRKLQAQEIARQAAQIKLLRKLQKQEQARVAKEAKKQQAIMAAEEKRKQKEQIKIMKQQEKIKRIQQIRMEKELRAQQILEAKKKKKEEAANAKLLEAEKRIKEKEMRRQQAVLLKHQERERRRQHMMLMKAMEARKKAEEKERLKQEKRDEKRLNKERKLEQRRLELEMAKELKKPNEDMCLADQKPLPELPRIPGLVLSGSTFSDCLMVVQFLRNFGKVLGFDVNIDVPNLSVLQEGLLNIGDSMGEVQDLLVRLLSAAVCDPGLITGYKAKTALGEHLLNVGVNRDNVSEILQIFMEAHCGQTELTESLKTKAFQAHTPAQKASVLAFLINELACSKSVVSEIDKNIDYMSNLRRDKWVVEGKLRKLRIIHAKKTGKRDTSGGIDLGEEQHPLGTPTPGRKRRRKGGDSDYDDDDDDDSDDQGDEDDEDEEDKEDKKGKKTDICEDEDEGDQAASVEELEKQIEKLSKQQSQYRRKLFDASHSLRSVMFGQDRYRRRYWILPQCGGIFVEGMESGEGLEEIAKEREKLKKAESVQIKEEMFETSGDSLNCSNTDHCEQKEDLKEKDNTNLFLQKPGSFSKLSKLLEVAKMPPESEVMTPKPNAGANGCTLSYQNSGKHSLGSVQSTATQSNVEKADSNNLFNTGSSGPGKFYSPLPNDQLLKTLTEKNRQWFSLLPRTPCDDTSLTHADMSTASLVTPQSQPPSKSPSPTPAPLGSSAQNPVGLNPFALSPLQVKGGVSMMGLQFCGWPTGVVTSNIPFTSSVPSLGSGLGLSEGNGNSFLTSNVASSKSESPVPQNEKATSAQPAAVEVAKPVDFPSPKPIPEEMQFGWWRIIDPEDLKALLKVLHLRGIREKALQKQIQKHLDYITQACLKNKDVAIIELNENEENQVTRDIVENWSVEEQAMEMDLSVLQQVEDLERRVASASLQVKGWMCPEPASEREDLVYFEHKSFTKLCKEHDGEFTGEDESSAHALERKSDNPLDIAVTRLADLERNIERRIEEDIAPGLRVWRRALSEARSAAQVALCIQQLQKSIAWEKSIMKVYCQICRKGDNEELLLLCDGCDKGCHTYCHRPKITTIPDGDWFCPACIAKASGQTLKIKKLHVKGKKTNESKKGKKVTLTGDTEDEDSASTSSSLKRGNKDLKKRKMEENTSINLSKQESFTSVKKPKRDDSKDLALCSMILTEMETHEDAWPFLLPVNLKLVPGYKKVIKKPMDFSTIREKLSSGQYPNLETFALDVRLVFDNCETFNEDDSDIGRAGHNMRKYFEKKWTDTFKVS
# Test: qHTS Assay for Inhibitors of BAZ2B; further: nearly all actives have a fitted effect of over 60% in size
# Conditions: AlphaScreen BAZ2B-H3K14Ac peptide displacement; series mostly up to 114 µM
# Summary of the method: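 Protein-peptide AlphaScreen: BAZ2B 50 nM, b-H3K14Ac 50 nM, 1x PBS pH 7.4 + 0.01% Tween-20. Preincubation 30 min RT; cpd 30 min RT (top 110 uM); beads 20 min RT, light-protected.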
# Potency means the concentration at half of the fitted maximal effect; tags describe the fitted curve by direction and shape.
row,SMILES,Potency
1,CN(CC(=O)Nc1ccc(Cl)c(Cl)c1)CC(=O)Nc1ccc2c(c1)OCO2,"inconclusive: 89.1 µM [inhibitor, single point]"
2,COc1cc(C(C[N+](=O)[O-])c2c(C)[nH]c3ccccc23)ccc1O (stereo not drawn),active: 39.8 µM
3,CCC(CC)N1CCN(C(=O)c2cccc(Cl)c2)CC1,active: 56.2 µM
4,CCOC(=O)N1CCN(c2ccc(S(=O)(=O)N3CCC(C)CC3)cc2[N+](=O)[O-])CC1,"inconclusive: 39.8 µM [inhibitor, partial curve]"
5,OCC1CCCN(C(=S)Nc2ccc(Nc3ccccc3)cc2)C1 (stereo not drawn),"inconclusive: 50.1 µM [inhibitor, partial curve]"
6,COc1cccc(CN2CCNC(=O)C2CC(=O)NC2Cc3ccccc3C2)c1 (stereo not drawn),"inconclusive: 50.1 µM [inhibitor, partial curve]"
7,O=C(CN1CCN(S(=O)(=O)/C=C/c2ccccc2)CC1)Nc1ccccc1N1CCOCC1,"inconclusive: 70.8 µM [inhibitor, single point]"
8,CC(C)(c1ccccc1)c1ccc(OCCCN2CCNCC2)cc1,active: 20 µM
9,O=C(CSc1nnc(-c2ccc([N+](=O)[O-])cc2)o1)Nc1ccccc1,"inconclusive: 50.1 µM [inhibitor, partial curve]"
10,CCCCc1ccc(CC2S/C(=C(\C#N)C(=O)N3CCOCC3)N(c3ccccc3)C2=O)cc1 (stereo not drawn),"inconclusive: 89.1 µM [inhibitor, single point]"
11,Cc1ccc(S(=O)(=O)Nc2cc(Cl)c(O)c3ncccc23)cc1,active: 8.91 µM
12,O=C(Nc1ccc(-n2cccn2)cc1)C1CCN(Cc2ccccn2)CC1,"inconclusive: 79.4 µM [inhibitor, partial curve]"
13,CC(C)N(Cc1ccccc1)C(=O)C1CCN(c2ncnc3c2nc2n3CCCCC2)CC1,"inconclusive: 70.8 µM [inhibitor, single point]"
14,Cc1c(NC(=S)N/N=C/c2ccc(O)cc2)c(=O)n(-c2ccccc2)n1C,inactive
15,COc1ccc(-c2csc3ncnc(N4CCN(c5cccc(Cl)c5)CC4)c23)cc1,"inconclusive: 89.1 µM [inhibitor, single point]"
16,O=C(NNc1ccccc1)C(=O)NNS(=O)(=O)c1ccc(CCCl)cc1,"inconclusive: 79.4 µM [inhibitor, single point]"
17,CN1CC[C@]23c4ccccc4N[C@H]1[C@]21CCN(C)[C@H]3Nc2ccccc21,inactive
18,COc1ccc(N=C2C(=Nc3ccc(OC)cc3)N(c3ccccc3)C(=S)N2C(=O)c2ccc(Cl)cc2)cc1,"inconclusive: 1.41 µM [inhibitor, full curve]"
19,CCOC(=O)C1CCN(CC(O)COC(CC)c2ccccc2)CC1 (stereo not drawn),inactive
20,Fc1ccc(C(c2nnnn2C2CCCCC2)N2CCCC2)cc1 (stereo not drawn),"inconclusive: 79.4 µM [inhibitor, single point]"
21,Cc1ccc2[nH]c(C)c(/C=N/Nc3nc4ccccc4s3)c2c1,"inconclusive: 25.1 µM [inhibitor, single point]"
22,CC(C)C(c1nnnn1Cc1ccc(F)cc1)N1CCN(C2CCCC2)CC1 (stereo not drawn),"inconclusive: 89.1 µM [inhibitor, single point]"

row,SMILES,Potency
1,COc1ccccc1CNS(=O)(=O)c1cc(CN2C(=O)c3cccnc3C2=O)ccc1OC,active: 56.2 µM
2,COc1ccccc1CNC(=O)C/C(C)=N/NC(=O)COc1ccc(C)cc1Br,inactive
3,Cc1cc(OCC(=O)C(C)(C)C)c2c(-c3ccccc3)cc(=O)oc2c1,inactive
4,Cc1ccc(NC(=O)CSc2sc3c(O)cc(=O)[nH]c3c2C#N)c(F)c1,"inconclusive: 8.91 µM [inhibitor, partial curve, poor fit]"
5,CCN1CCN(S(=O)(=O)c2ccc(Cl)c(C(=O)Nc3ccccc3N3CCCCC3)c2)CC1,inactive
6,Cc1[nH]n(C)c(=O)c1C(=O)c1c(-c2c(Cl)cccc2Cl)noc1C,"inconclusive: 89.1 µM [inhibitor, single point]"
7,Cc1cc(C)cc(OCCCCn2cncn2)c1,"inconclusive: 89.1 µM [inhibitor, single point]"
8,CCOC(=O)C1=C(C)N=c2s/c(=C/c3cccc([N+](=O)[O-])c3O)c(=O)n2C1c1cc(OC)c(OC)c(OC)c1 (stereo not drawn),active: 7.94 µM
9,COc1ccc(OCC(=O)N/N=C/c2ccc(N(C)C)cc2)cc1,"inconclusive: 44.7 µM [inhibitor, partial curve]"
10,CSc1ccc(CN(C)C(=O)c2cc(Cl)c3c(c2)OCCO3)cc1,"inconclusive: 44.7 µM [inhibitor, partial curve]"
11,O=C(COC(=O)CCc1ccc(S(=O)(=O)N2CCOCC2)cc1)Nc1ccc(Cl)cn1,"inconclusive: 89.1 µM [inhibitor, single point]"
12,NC(=S)N/N=C/c1ccc(-n2nncc2-c2ccc(Cl)cc2)cc1,"inconclusive: 39.8 µM [inhibitor, partial curve]"
13,CCc1cc(=O)oc2cc(C)cc(OC(C)C(=O)NC(Cc3c[nH]c4ccc(O)cc34)C(=O)O)c12 (stereo not drawn),"inconclusive: 56.2 µM [inhibitor, partial curve, poor fit]"
14,NC(=S)N/N=C\c1ccccc1OCc1ccccc1,"inconclusive: 50.1 µM [inhibitor, partial curve]"
15,Cc1ccccc1CSc1ncc(CO)n1Cc1ccc(F)cc1,"inconclusive: 22.4 µM [inhibitor, partial curve]"
16,Cc1c(C(=O)NCCc2ccc(Cl)cc2)sc2nc3n(c(=O)c12)CCCC3,active: 39.8 µM
17,CCOC(=O)N1CCN(C(=O)c2ccc3c(c2)N(Cc2ccc(F)cc2)CCS3)CC1,"inconclusive: 89.1 µM [inhibitor, single point]"
18,Cc1ccccc1CN1c2ccccc2-c2nc(SCC(=O)NCc3ccccc3)ncc2S1(=O)=O,inactive
19,Cc1ccc(S(=O)(=O)N(C)c2ccc(N)cc2)cc1,inactive
20,Cc1ccc(S(C)(=O)=O)cc1C(=O)OCC(=O)N1CCCC1=O,inactive
21,CC(=O)N1N=C(c2cccc([N+](=O)[O-])c2)OC1c1ccc(Br)cc1 (stereo not drawn),"inconclusive: 50.1 µM [inhibitor, partial curve]"
